Experimental data published in the supplement of paper PMC3334620.
Over roughly 33,000 sequences, “E-score (-0.5 to 0.5)” has its median near -0.056; the highest 2% begin near 0.38. The list shows a part of the results.

Target: Stb4 (UniProt P50104)
Assay: PBM E-score (8-mer binding enrichment) (E-score (-0.5 to 0.5)); higher = stronger / more preferred TF binding; most listed sequences are background and not binding sites
Settings: protein concentration: 200 nM; construct: GST-DNA-binding domain
Procedure, shortened: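 E-scores (a modified Wilcoxon-Mann-Whitney statistic) were assigned by the Universal PBM Analysis Suite to every ungapped eight-base word pooled with its reverse complement. The input came from universal all-10-mer Agilent arrays made double-stranded by primer extension and probed with GST-tagged yeast transcription factors at about 100-200 nM. Fluorescent anti-GST detected bound protein, and masliner normalised the scans.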

Sequence | PBM E-score
GCATTACC | 0.134
AAATCTTG | -0.0101
TAGGACTA | -0.0548
TCTTTAAA | -0.101
AGGGTTTA | -0.172
ATTGAGGG | -0.176
ATAAGTAT | 0.0367
CCGCTCCC | 0.116
AGACTCAC | -0.301
ATATCTAG | -0.153
CTTCGTTA | -0.159
CAGGTTAG | -0.12
ATTCGCCG | 0.225
CGACACCA | 0.145
CGCGTAAG | -0.0183
GTAGCGAA | -0.0712
CAATTATC | 0.0951
CAGCGCCA | -0.234
GGCCGGCA | 0.313
TGACCACA | -0.218
CGATAGAG | -0.0674
CGCACTCA | 0.136
ATTCCAAA | -0.0736
AAACATAG | -0.15
ACTTCTAG | -0.191

Sequence | PBM E-score
CCATTGTC | -0.0328
AAGTGCGG | 0.226
ACATGTTC | -0.0431
GCCAGTAA | -0.103
ACAATAGA | -0.117
ATTGGGGG | -0.25
AGCCGTAG | 0.146
AATTGTGC | -0.0968
CGGCCGCC | 0.145
CCTATCGA | -0.272
CTCCCACC | -0.045
GAGGCCGA | 0.201
CGTCAGGC | -0.0155
GATGCCAA | -0.201
CGTGCTCA | 0.0362
CCACGACG | 0.0216
GCGTACGA | 0.0506
TAATAGGA | -0.0695
CGTCTAGA | -0.0657
ACTTTATG | -0.136
AAAGTGGG | -0.0324
AATTATAT | 0.107
AGAACAAA | 0.0832
CGCGCGAG | -0.0296
CAGCTAGC | -0.0222

Sequence | PBM E-score
CGGTTTAC | 0.147
CGATCTCC | 0.0879
TTTAGAAA | 0.0564
AGTCCTGA | -0.289
GCTCTATA | -0.0785
AATGGACT | -0.294
CTGACTGA | -0.239
CGGAACCG | 0.407
CGTAACCA | -0.0775
CCTTCCCC | 0.0472
ACACCAGA | -0.0626
CCAAGGGC | -0.173
AAACGTTA | -0.134
CACGAGAG | -0.136
AATGGGAT | -0.0469
CTAATCTC | -0.0453
TCAGCTAA | -0.276
GACCTGAA | 0.156
CGCATGTC | -0.102
GATACATA | 0.0345
CTGAGGCA | -0.124
AACGATAT | -0.0769
CGATGCGC | 0.0321
CGTAAAAG | -0.13
CAACTCAA | -0.0984

Sequence | PBM E-score
AAAATCCG | 0.316
ATACTATA | -0.167
AAAATCGA | -0.175
GCGTCTGA | -0.15
AACCGTGT | 0.12
AGTGCCGG | 0.301
GTTTGCCA | -0.0952
AAACCCAT | 0.0958
ACGAGACG | 0.0568
ATGATGGG | -0.114
GCGTCAAC | -0.169
AGCTTGAT | -0.25
CACTAAGC | -0.203
ATAGCAAG | 0.0135
CACGCAAG | -0.109
ACTGCACC | 0.0311
GTTAGTCA | -0.052
CGGGGACA | 0.193
TAGTCAAA | -0.144
CATTGAGC | -0.241
ACGGTCCT | -0.143
CGAAGAGC | 0.244
CGATCTTA | -0.0848
TTACGGAA | 0.365
CCGCGTAA | 0.0987

Sequence | PBM E-score
ATGCGCTA | -0.259
CTTAAGAC | -0.177
AGTTGCCC | -0.00828
GGGAAAAA | 0.241
AGCCCACC | 0.044
ACATTGAT | 0.0749
CGAGGAGA | -0.0149
ACAGCGCG | -0.0549
ATCTGTGC | -0.169
AGGAAGTC | -0.19
AAGGCAAG | -0.22
GCCCGACC | 0.168
AGTAATGA | -0.159
CGCGCCTC | 0.0642
AGTAGATA | -0.0337
AAGTCAGT | 0.0161
ACACCAAA | -0.0937
GCTGGAAC | -0.0614
GCACGTGC | -0.0618
CGGATTCC | 0.359
AGGTAACC | -0.0271
GAGGGCGA | -0.114
CTGATTCC | 0.014
CAGAGGTC | -0.194
CACGCCAC | -0.205

Sequence | PBM E-score
AAGCACGA | -0.0932
AAAACAAA | 0.113
CGTCACGC | -0.0645
CCCGATCC | 0.313
GCATTTAC | -0.0832
AATAGTTG | -0.0512
CCAAACGC | -0.135
TGGGTAAA | -0.0511
ACGTTGTG | -0.168
CGGCGACA | 0.124
AATGGGAG | -0.215
GACTCCGA | 0.321
GAGAAATC | 0.0628
ACGTCTCC | -0.125
ATCTTTGA | -0.104
GCCGACAA | 0.299
AAGCCCGT | -0.0399
GTCTTGAA | 0.0554
AAGACTAG | -0.209
CTTCAGCA | -0.285
TAAAAACA | -0.0863
ACCCGATG | 0.399
GCACAGCC | 0.141
GTTCCAAA | -0.0427
CTAGGGTA | -0.143

Sequence | PBM E-score
ACCTCGAC | -0.156
AATAGCAG | -0.2
AATCGGTG | -0.0308
ATTCTATC | -0.168
AGGACACC | -0.0973
GATCATGC | 0.0103
AGGTGGGA | -0.168
AATAAACA | 0.00831
ACCGCTGA | -0.167
GGCATATA | 0.141
GCACCTTA | -0.163
CAGGATTC | -0.0796
CGCGAAGC | 0.103
CGATCACG | 0.0774
CGGCCACG | -0.024
ACAGTCTC | -0.148
AGCGCAGG | -0.0828
ACTTAGAG | -0.281
CGGACTAC | 0.154
CAGCAGGC | 0.00903
AGCCGGTG | 0.226
CTCGCAGA | -0.261
ATCCTACC | 0.04
ACGTCCAT | -0.199
GAGGGTAC | -0.235

Sequence | PBM E-score
AGGTGATC | -0.159
GGAATTGA | 0.135
ACTAATGA | -0.0311
GGGTTACA | 0.0753
ACGTATTA | 0.0772
CACTCGTA | -0.292
TCCGCTCA | 0.0169
ATTGAAAC | -0.16
CCCAGTCA | -0.282
CCGGATCC | 0.395
ACCTGAAA | -0.0945
AAGGGAGC | -0.0979
ACTTCCGG | 0.411
CAGCGGTC | -0.186
GATAAAGC | 0.0432
AAGCATGT | -0.0991
GTAGTCGA | -0.038
AGTACATG | -0.127
ACCTGACA | -0.17
GGGTGTAC | 0.0614
ATTACTGG | -0.194
ACTATGTG | -0.0584
CTGGTGTC | -0.068
AAGGAGCA | -0.118
CACAATCC | 0.044

Sequence | PBM E-score
CTCGACAG | -0.215
ACTCACGA | -0.256
ATTTTTAG | -0.0317
CCAAACTA | -0.113
GAGCTGCC | 0.0988
CGGAAAGA | 0.407
AACGAACT | -0.212
TCGTCGCA | -0.133
CCATAACC | -0.0552
GACACTGC | -0.136
AAATGTCG | 0.0675
AGCCAAAT | 0.00327
CCGTCTGC | 0.0943
ACAACGAG | -0.233
ATGCGGTA | 0.0724
TATTACAA | -0.0959
CTAGGGGA | -0.203
CAGTCACA | -0.242
AATCTCAT | -0.139
